Experimental data reported in PubChem BioAssay AID652104 (National Center for Advancing Translational Sciences (NCATS), 2013).
Hit rate of the full screen: of about 410,000 compounds, about 7,200 (1.8%) were called active. This list was built around the results that the source calls inconclusive (neither active nor inactive); the mix of calls is not that of the screen. Calls follow the shape of the dose curve; as a rule, active = well fitted activation curve with a large enough effect; inconclusive = small, poorly fitted or top-dose-only effect, or another doubt; inactive = no such curve, though single readings can be large or run the other way. Where the call is inconclusive, the potency comes from a doubtful curve fit.

Assay: qHTS of TDP-43 Inhibitors; also: nearly all actives have a fitted effect of over 50% in size; as to growth rescue (activation): % of control where 0% means no effect
Conditions: TDP-43 expressing yeast growth rescue, BacTiter-Glo, 24 h; growth rescue (activation): at 46.1 µM (top of the series) unless noted
How it was run: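 Luminescence from BacTiter-Glo reports growth of TDP-43-expressing yeast after 24 hr at 30 deg C with compound. Cells were raffinose-pregrown to mid-log, then seeded in galactose medium at OD600=0.02.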
Potency is read from the fitted curve at half-maximal effect; tags tell the direction and shape of the fitted curve.

Growth rescue (activation), inconclusive:
Nc1ccc2nc(SCC(=O)c3ccccc3)sc2c1 -80.6% [activator], Cc1ccc(CN2C(=O)C(=O)c3cc(Br)cc(C)c32)cc1 -90.4% [activator]

Growth rescue (activation), inactive:
CN(C)c1ccc(-c2csc(C(C)(O)c3ccc(F)c(F)c3)n2)cc1 (stereo unspecified) 11.2%, COc1cc(C(=O)Nc2ccc(NC(=O)c3ccccc3Cl)nc2)cc(OC)c1OC -8.34%, CCCOc1ccc(CNC(=O)Cn2cc3c(n2)-c2c(oc(C(=O)N4CCOCC4)c2C)CC3)cc1 0%, Cc1ccc(Nc2c(-c3ccc(C)cc3)nc3ccc(C)cn23)cc1 -11.6%, Cc1[nH]n(-c2ccccc2)c(=O)c1C1(C(F)(F)F)C(=O)N(c2ccccc2)C2=C1C(=O)CC(C)(C)C2 (stereo unspecified) -2.88%, O=C(O)c1ccccc1NS(=O)(=O)c1cccc(-n2sc3ccccc3c2=O)c1 27.4%, O=C(COCc1ccccc1)N[C@@H]1c2ccccc2CC[C@@H]1OCc1ccccc1 6.04%, Cc1ccc(-c2cc(C(F)F)n3ncc(C(=O)N4CCCCC4c4cccnc4)c3n2)cc1 (stereo unspecified) -20.7%, COc1ccc(N(C(=O)c2ccc(Cl)cc2)S(=O)(=O)c2ccc(C)cc2)cc1 22.4%, O=c1c2[nH]c3ccc(F)cc3c2ncn1CCCN1CCOCC1 -22.6%, COc1ccccc1Cc1nc2ccccc2nc1SCC(=O)Nc1ccccc1C(F)(F)F -12.3%, O=C(Cn1cnc2ccccc2c1=O)N1CCN(Cc2ccccc2)CC1 -11%, CC1CCn2c(nc3cc(C(=O)NCc4ccc(F)cc4)ccc32)C1 (stereo unspecified) 8.48%, CC1CCN(c2ccc(-c3cccc(NS(=O)(=O)c4cccs4)c3)nn2)CC1 15.2%, Cc1ccc(NC(=O)c2ccc(C)cc2)cc1 0%, Cc1ccc2nc(-c3ccccc3)c(CC3CCCCC3)n2c1 0%, CCOC(=O)N/N=C/c1ccc(C)o1 -9.06%, CN1C(C(=O)Nc2ncccn2)=C(O)c2ccccc2S1(=O)=O -8.51%, COc1ccc(CNC(=O)/C=C/C(=O)O)cc1 -1.03%, CCN(C(=O)c1cc2c(=O)n(CC)c3ccccc3c2s1)c1cccc(C(F)(F)F)c1 -4.82%, CSc1ccc(CCNC(=O)Cn2ncn3c(cc4ccccc43)c2=O)cc1 16.9%

Potency, active:
CCc1ccc(C2=Nn3c(nnc3-c3cccs3)SC2)cc1 11.2 µM, COCCNc1nc(-c2ccccc2)nc2c1oc1ccccc12 12.6 µM, COc1ccc(-c2nc(CCNC(=O)c3c(F)cccc3Cl)cs2)cc1 17.8 µM, COc1ccc(NC(=O)C(c2ccncc2)n2c(=O)c(-c3cc4ccccc4[nH]3)nc3ccccc32)cc1 (stereo unspecified) 17.8 µM

Potency, inconclusive:
O=C(NCCC1=CCCCC1)C1CCN(c2nnc(-n3cccc3)s2)CC1 31.6 µM [activator, partial curve], CNC1=C(N(C(C)=O)c2ccc(Br)cc2)C(=O)c2ccccc2C1=O 35.5 µM [activator, single point], Cc1ccccc1S(=O)(=O)N1C[C@H]2CON(C)[C@H]2C[C@H]1c1cccc(-c2ccc(C#N)cc2)c1 8.91 µM [activator, partial curve], Cc1ccc(N(CC(=O)Nc2ccc3c(c2)OCCO3)S(=O)(=O)c2c(C)noc2C)cc1 14.1 µM [activator, single point], Clc1cccc(Cl)c1CNc1ccc(N2CCCC2)cc1 15.8 µM [activator, partial curve], CCOC(=O)CSc1nc(N)nc(C)c1Br 14.1 µM [activator, partial curve], Cc1nc2cc(-c3cccc(F)c3)nn2c(C)c1CCC(=O)NC(C)c1ccc2c(c1)OCCO2 (stereo unspecified) 35.5 µM [activator, single point], Cc1ccc(Cl)cc1N1CCN(C(=O)CCCn2c(=O)c3cccn3c3cccnc32)CC1 25.1 µM [activator, single point], CCOc1cc(NC(=S)Nc2ccc(Cl)cc2)c(OCC)cc1NC(C)=O 35.5 µM [activator, partial curve], CC(NC(=O)c1ccc(Cn2c(=O)c3cccn3c3cccnc32)cc1)c1ccccc1 (stereo unspecified) 1.58 µM [activator, full curve, poor fit], COC(=O)c1ccccc1NC(=O)CSc1nnnn1C1CCCCC1 35.5 µM [activator, single point], COc1ccc(-c2nnc(OC)c3ccccc23)cc1 15.8 µM [activator, partial curve], COc1ccccc1N1CCN(C(=O)c2cc(-c3ccc(F)cc3)[nH]c2C)CC1 25.1 µM [activator, single point], CCC1CCCCN1c1cc(C)nc2cc(-c3cccc(C)c3)nn12 (stereo unspecified) 28.2 µM [activator, single point], NC(=O)COC(=O)CSc1cccc2cccc(Cl)c12 35.5 µM [activator, single point], CCN(c1ccccc1)c1nc2ccsc2c(=O)s1 4.47 µM [activator, partial curve], CCOc1nc(NC(=O)NS(=O)(=O)Oc2cccc(Cl)c2)nc(-c2ccccc2)n1 35.5 µM [activator, single point], Cc1ccc(C)c(NC(=O)c2cnccn2)c1 7.08 µM [activator, partial curve], Cc1cc(C(C)(C)C)oc1C(=O)Nc1ccc(CC(=O)O)cc1 15.8 µM [activator, single point], O=C(c1ccc(F)cc1)N1CCCN(c2nc(-c3ccccc3)ns2)CC1 14.1 µM [activator, partial curve], Cc1ccc(C)c(NC(=S)NCc2ccc3c(c2)OCO3)c1 35.5 µM [activator, single point], CCOC(=O)C1CCN(C(=O)c2ccc(Oc3cc(Cl)cc(Cl)c3)o2)CC1 31.6 µM [activator, single point], CCN(CC)CCSc1nnc2c3cc(C)ccc3n(Cc3ccccc3)c2n1 31.6 µM [activator, single point], COc1ccc2oc(C(=O)C3CC3)c(N)c2c1 20 µM [activator, single point], COc1cccc(CNC(=O)CN2CCCN(Cc3ccccc3)S2(=O)=O)c1 3.98 µM [activator, full curve], CCC(C)Sc1nc2c(c(=O)[nH]1)C(c1cccs1)C1=C(CCCC1=O)N2 (stereo unspecified) 1.12 µM [activator, full curve, poor fit], COc1ccc(-c2nnc(-c3ccc(Br)o3)o2)cc1OC 22.4 µM [activator, single point], Cc1cc(NS(=O)(=O)c2ccc(NC(=O)COc3ccc(Br)cc3)cc2)nc(C)n1 31.6 µM [activator, single point], Cc1noc(C)c1CSCC(=O)Nc1ccc(Br)cc1Cl 11.2 µM [activator, partial curve], O=C(CNC(=O)c1ccco1)OCC(=O)c1ccc2ccccc2c1 25.1 µM [activator, single point], O=C(COC(=O)CCSc1ccc(Cl)cc1)Nc1ccc(F)cc1 35.5 µM [activator, single point], O=C(CCC1COc2ccccc2O1)NCC1COc2ccccc2O1 (stereo unspecified) 12.6 µM [activator, single point], COc1ccccc1NC(=O)c1c([N+](=O)[O-])c(C(C)(C)C)nn1C 17.8 µM [activator, partial curve], CCOc1cc(/C=N/NC(=O)CSc2nncn2C)ccc1OCc1cccc(C)c1 8.91 µM [activator, partial curve, poor fit], CCn1c2ccccc2c2cc(NC(=O)c3cc(C)on3)ccc21 22.4 µM [activator, single point], O=C(CC1C(=O)NCCN1Cc1cccc(Oc2ccccc2)c1)NCCn1cccn1 (stereo unspecified) 0.316 µM [activator, full curve], C/C(=N\Nc1nc(C)cc(-c2ccccc2)n1)c1ccccc1 20 µM [activator, single point], COc1ccc(-c2cc(-c3c(O)c(OC)c4occc4c3OC)[nH]n2)cc1OC 28.2 µM [activator, single point], N#CC(c1ccc(Cl)cc1)c1cccc(Cl)n1 (stereo unspecified) 8.91 µM [activator, single point], Cc1ccc(C)c(NC(=O)CSc2nnc(-c3ccccc3)o2)c1 3.16 µM [activator, partial curve], CCSc1nc2c([nH]c3ccccc32)c(=O)n1-c1cccc(OC)c1 11.2 µM [activator, partial curve, poor fit], COc1ccc(C(=O)NC(=S)NNC(=O)c2ccncc2)cc1Br 35.5 µM [activator, single point], CCN1C(=O)N(c2ccc(C(C)=O)cc2)S(=O)(=O)c2ccccc21 17.8 µM [activator, partial curve], O=C(C[n+]1ccccc1)N/N=C/c1cccc(Cl)c1Cl 25.1 µM [activator, single point]
